Some of the results follow.
How the values were obtained:
Assay in all cases: glycan array binding signal (z-score within array); higher = stronger binding
Conditions in all cases: glycan notation: IUPAC condensed, linker removed; mutation: F63H
[1] = molecular target: Neu5Ac(a2-6)Gal(b1-4)GlcNAc(b1-3)Gal(b1-4)GlcNAc(b1-3)Gal(b1-4)GlcNAc(b1-2)Man(a1-3)[Neu5Ac(a2-6)Gal(b1-4)GlcNAc(b1-3)Gal(b1-4)GlcNAc(b1-3)Gal(b1-4)GlcNAc(b1-2)Man(a1-6)]GalNAc
Summary of the method: (§1)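 From the Consortium for Functional Glycomics database, 3228 arrays were curated, keeping only those whose protein sequence was available. Binding is given as a within-array Z-score averaged across arrays sharing a protein sequence and across linkers. Negative Z-scores can be read as non-binding.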

[2] = molecular target: Neu5Ac(a2-6)Gal(b1-4)GlcNAc(b1-3)Gal(b1-4)GlcNAc(b1-3)GalNAc
Summary of the method: as §1

[3] = molecular target: Neu5Ac(a2-6)Gal(b1-4)GlcNAc(b1-3)Gal(b1-4)GlcNAc(b1-3)[Neu5Ac(a2-6)Gal(b1-4)GlcNAc(b1-3)Gal(b1-4)GlcNAc(b1-6)]GalNAc
Summary of the method: as §1

[4] = molecular target: Neu5Ac(a2-6)Gal(b1-4)GlcNAc(b1-3)Gal(b1-4)GlcNAc(b1-6)[Gal(b1-3)]GalNAc
Summary of the method: as §1

[5] = molecular target: Neu5Ac(a2-6)Gal(b1-4)GlcNAc(b1-3)Gal(b1-4)[Fuc(a1-3)]GlcNAc(b1-3)Gal(b1-4)[Fuc(a1-3)]GlcNAc
Summary of the method: as §1

[6] = molecular target: Neu5Ac(a2-6)Gal(b1-4)GlcNAc(b1-3)GalNAc
Summary of the method: as §1

[7] = molecular target: Neu5Ac(a2-6)Gal(b1-4)GlcNAc(b1-3)[Neu5Ac(a2-6)Gal(b1-4)GlcNAc(b1-6)]GalNAc
Summary of the method: as §1

[8] = molecular target: Neu5Ac(a2-6)Gal(b1-4)GlcNAc(b1-6)GalNAc
Summary of the method: as §1

[9] = molecular target: Neu5Ac(a2-6)Gal(b1-4)GlcNAc(b1-6)[Gal(b1-3)GlcNAc(b1-3)]Gal(b1-4)Glc
Summary of the method: as §1

[10] = molecular target: Neu5Ac(a2-6)Gal(b1-4)GlcNAc(b1-6)[Gal(b1-3)]GalNAc
Summary of the method: as §1

[11] = molecular target: Neu5Ac(a2-6)Gal(b1-4)GlcNAc6S
Summary of the method: as §1

[12] = molecular target: Neu5Ac(a2-6)GalNAc
Summary of the method: as §1

[13] = molecular target: Neu5Ac(a2-6)GalNAc(b1-4)GlcNAc
Summary of the method: as §1

[14] = molecular target: Neu5Ac(a2-6)GalNAc(b1-4)GlcNAc6S
Summary of the method: as §1

[15] = molecular target: Neu5Ac(a2-6)GlcNAc(b1-4)GlcNAc
Summary of the method: as §1

[16] = molecular target: Neu5Ac(a2-6)GlcNAc(b1-4)GlcNAc(b1-4)GlcNAc
Summary of the method: as §1

[17] = molecular target: Neu5Ac(a2-8)Neu5Ac
Summary of the method: as §1

[18] = molecular target: Neu5Ac(a2-8)Neu5Ac(a2-3)Gal(b1-3)GalNAc(b1-4)[Neu5Ac(a2-3)]Gal(b1-4)Glc
Summary of the method: as §1

[19] = molecular target: Neu5Ac(a2-8)Neu5Ac(a2-3)Gal(b1-3)GalNAc(b1-4)[Neu5Ac(a2-8)Neu5Ac(a2-3)]Gal(b1-4)Glc
Summary of the method: as §1

[20] = molecular target: Neu5Ac(a2-8)Neu5Ac(a2-3)Gal(b1-4)Glc
Summary of the method: as §1

[21] = molecular target: Neu5Ac(a2-8)Neu5Ac(a2-3)Gal(b1-4)GlcNAc
Summary of the method: as §1

[22] = molecular target: Neu5Ac(a2-8)Neu5Ac(a2-3)[Gal(b1-3)GalNAc(b1-4)]Gal(b1-4)Glc
Summary of the method: as §1

[23] = molecular target: Neu5Ac(a2-8)Neu5Ac(a2-3)[GalNAc(b1-4)]Gal(b1-4)Glc
Summary of the method: as §1

[24] = molecular target: Neu5Ac(a2-8)Neu5Ac(a2-8)Neu5Ac
Summary of the method: as §1

[25] = molecular target: Neu5Ac(a2-8)Neu5Ac(a2-8)Neu5Ac(a2-3)Gal(b1-4)Glc
Summary of the method: as §1

[26] = molecular target: Neu5Ac(a2-8)Neu5Ac(a2-8)Neu5Ac(a2-3)[Gal(b1-3)GalNAc(b1-4)]Gal(b1-4)Glc
Summary of the method: as §1

[27] = molecular target: Neu5Ac(a2-8)Neu5Ac(a2-8)Neu5Ac(a2-3)[GalNAc(b1-4)]Gal(b1-4)Glc
Summary of the method: as §1

[28] = molecular target: Neu5Ac(a2-8)Neu5Ac(a2-8)Neu5Ac(a2-8)Neu5Ac(a2-3)[GalNAc(b1-4)]Gal(b1-4)Glc
Summary of the method: as §1

[29] = molecular target: Neu5Ac(a2-8)Neu5Gc(a2-3)Gal(b1-4)GlcNAc
Summary of the method: as §1

[30] = molecular target: Neu5Ac(b2-6)Gal(b1-4)GlcNAc
Summary of the method: as §1

[31] = molecular target: Neu5Ac(b2-6)GalNAc
Summary of the method: as §1

[32] = molecular target: Neu5Ac9Ac(a2-3)Gal(b1-3)GlcNAc
Summary of the method: as §1

[33] = molecular target: Neu5Ac9Ac(a2-3)Gal(b1-4)GlcNAc
Summary of the method: as §1

[34] = molecular target: Neu5Ac9Ac(a2-6)Gal(b1-4)GlcNAc
Summary of the method: as §1

[35] = molecular target: Neu5Gc(a2-3)Gal(b1-3)GlcNAc
Summary of the method: as §1

[36] = molecular target: Neu5Gc(a2-3)Gal(b1-3)[Fuc(a1-4)]GlcNAc
Summary of the method: as §1

[37] = molecular target: Neu5Gc(a2-3)Gal(b1-4)Glc
Summary of the method: as §1

[38] = molecular target: Neu5Gc(a2-3)Gal(b1-4)GlcNAc
Summary of the method: as §1

[39] = molecular target: Neu5Gc(a2-3)Gal(b1-4)GlcNAc(b1-3)Gal(b1-4)GlcNAc(b1-2)Man(a1-3)[Neu5Gc(a2-3)Gal(b1-4)GlcNAc(b1-3)Gal(b1-4)GlcNAc(b1-2)Man(a1-6)]Man(b1-4)GlcNAc(b1-4)GlcNAc
Summary of the method: as §1

[40] = molecular target: Neu5Gc(a2-3)Gal(b1-4)[Fuc(a1-3)]GlcNAc
Summary of the method: as §1

[41] = molecular target: Neu5Gc(a2-6)Gal(b1-4)GlcNAc
Summary of the method: as §1

[42] = molecular target: Neu5Gc(a2-6)GalNAc
Summary of the method: as §1

[43] = molecular target: Neu5Gc(a2-8)Neu5Ac(a2-3)Gal(b1-4)GlcNAc
Summary of the method: as §1

[44] = molecular target: Neu5Gc(a2-8)Neu5Gc(a2-3)Gal(b1-4)GlcNAc
Summary of the method: as §1

[45] = molecular target: Neu5Gc(a2-8)Neu5Gc(a2-3)Gal(b1-4)GlcNAc(b1-3)Gal(b1-4)GlcNAc
Summary of the method: as §1

[46] = molecular target: Neu5Gc(a2-8)Neu5Gc(a2-6)Gal(b1-4)GlcNAc
Summary of the method: as §1

[47] = molecular target: Neu5Gc(b2-6)Gal(b1-4)GlcNAc
Summary of the method: as §1

B1: AAL (Agrocybe aegerita), Q6WY08 (protein)
chain: MQGVNIYNISAGTSVDLAAPVTTGDIVTFFSSALNLNAGAGNPNNTTLNLFAENGAYLLHIAHRLQENVIIFNSRQPDGPWLVEQRVSDVANQFAGIDGKAMVTVFDHGDKYQVVINEKTVIQYTKQISGLTLSLSYNATEETSIFSTVVEAVTYTGLALEHHHHHH
glycan array binding signal (z-score) [1]: -0.265 | glycan array binding signal (z-score) [2]: -0.134 | glycan array binding signal (z-score) [3]: 0.372 | glycan array binding signal (z-score) [4]: -0.011 | glycan array binding signal (z-score) [5]: -0.116 | glycan array binding signal (z-score) [6]: -1.46 | glycan array binding signal (z-score) [7]: -0.597 | glycan array binding signal (z-score) [8]: 0.076 | glycan array binding signal (z-score) [9]: -0.33 | glycan array binding signal (z-score) [10]: 0.137 | glycan array binding signal (z-score) [11]: -0.305 | glycan array binding signal (z-score) [12]: -0.272 | glycan array binding signal (z-score) [13]: -0.219 | glycan array binding signal (z-score) [14]: -0.324 | glycan array binding signal (z-score) [15]: 0.101 | glycan array binding signal (z-score) [16]: -0.433 | glycan array binding signal (z-score) [17]: -0.378 | glycan array binding signal (z-score) [18]: 0.371 | glycan array binding signal (z-score) [19]: 0.508 | glycan array binding signal (z-score) [20]: 0.213 | glycan array binding signal (z-score) [21]: -0.674 | glycan array binding signal (z-score) [22]: 0.017 | glycan array binding signal (z-score) [23]: -0.402 | glycan array binding signal (z-score) [24]: 0.022 | glycan array binding signal (z-score) [25]: 0.632 | glycan array binding signal (z-score) [26]: 0.022 | glycan array binding signal (z-score) [27]: 0.05 | glycan array binding signal (z-score) [28]: -0.611 | glycan array binding signal (z-score) [29]: -0.12 | glycan array binding signal (z-score) [30]: 0.218 | glycan array binding signal (z-score) [31]: -0.761 | glycan array binding signal (z-score) [32]: -0.405 | glycan array binding signal (z-score) [33]: -0.004 | glycan array binding signal (z-score) [34]: -0.283 | glycan array binding signal (z-score) [35]: -0.47 | glycan array binding signal (z-score) [36]: 0.062 | glycan array binding signal (z-score) [37]: 1.34 | glycan array binding signal (z-score) [38]: -0.295 | glycan array binding signal (z-score) [39]: -0.043 | glycan array binding signal (z-score) [40]: 0.023 | glycan array binding signal (z-score) [41]: -0.166 | glycan array binding signal (z-score) [42]: -0.14 | glycan array binding signal (z-score) [43]: -0.208 | glycan array binding signal (z-score) [44]: -0.039 | glycan array binding signal (z-score) [45]: -0.228 | glycan array binding signal (z-score) [46]: -0.32 | glycan array binding signal (z-score) [47]: -0.366

— the supplement of paper PMC8728848
